Out of some 310,000 compounds screened, about 11,000 (3.5%) were called active. The shares of active, inactive and inconclusive entries below differ from those in the screen. The call rests on the fitted dose curve; in most records, active means well fitted inhibition curve with a large enough effect; inconclusive means small, poorly fitted or top-dose-only effect, or effect the other way; inactive means flat fitted curve, though single readings scatter. Potencies of inconclusive entries are left out as doubtful fits.
Assay: VP16 counterscreen qHTS for inhibitors of ROR gamma transcriptional activity;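 further: Gal4-VP16 expression switched on by copper sulfate through the metallothionein promoter; nearly all actives have a fitted effect of over 50% in size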
Conditions: Drosophila S2 Gal4-VP16 UAS-luciferase, luminescence, 20 h; series mostly up to 53.6 µM
In the case of `Cc1[nH]c2ccccc2c1/C=N/NC(=O)Nc1ccccc1`, the Potency is reported as inconclusive [activator, single point].
In the case of `CC(C)C(=O)N(c1ccc2oc(=O)sc2c1)S(=O)(=O)c1ccccc1`, the Potency is reported as inconclusive [inhibitor, single point].
In the case of `Nc1nonc1-n1nnc(C(=O)N/N=C/c2ccoc2)c1CSc1ccccc1`, the Potency is reported as inconclusive [inhibitor, single point].
With `Cc1ccc(NC(=S)NNS(=O)(=O)c2ccc3ccccc3c2)cc1Cl` the Potency was inconclusive [inhibitor, single point].
In the case of `Cc1ccc(C2CC(=O)C(C=NCCN3CCN(C(=S)Nc4ccc(F)cc4)CC3)=C(O)C2)cc1` (configuration not stated), the Potency is reported as inconclusive [inhibitor, single point].
For `Cc1ccc(C(=O)O/N=C(\N)Cc2cccs2)c(Cl)c1`, the Potency was inconclusive [inhibitor, partial curve].
For `COc1cccc(/C=N/NC(=O)CSc2nnc(C)n2-c2ccccc2)c1O`, the Potency was active: 20 µM.
For `O=C(O)c1ccc(NCc2ccc(Br)cc2)cc1`, the Potency was inconclusive [inhibitor, partial curve].
With `CC(=O)n1nc(-c2ccc(C)cc2)nc1NCc1ccc(F)cc1` the Potency was “inactive”.
For `CC[C@@H]1CC=C[C@H]2[C@H]1C(=O)N(Cc1ccccc1)[C@H]2c1ccc(C(F)(F)F)cc1`, the Potency was inconclusive [inhibitor, partial curve].
In the case of `COc1ccc(NC(=S)N2N=CCC2c2ccccc2)cc1` (configuration not stated), the Potency is reported as inconclusive [inhibitor, partial curve].
With `O=c1c2ccccc2nc2n1CCc1c-2[nH]c2ccccc12` the Potency was inconclusive [inhibitor, single point].
In the case of `COc1ccc(Cl)cc1NS(=O)(=O)c1c(C)[nH]c(=O)[nH]c1=O`, the Potency is reported as “inactive”.
In the case of `COc1ccc(CCNC(=O)C2CCCN2C(=O)Nc2ccc(Cl)cc2)cc1OC` (configuration not stated), the Potency is reported as “inactive”.
With `C#C[C@]1(OC(C)=O)CC[C@H]2[C@@H]3CCC4=C/C(=N/O)CC[C@@H]4[C@H]3CC[C@@]21CC` the Potency was inconclusive [inhibitor, single point].
In the case of `O=C(/C=C/C=C/c1ccc2c(c1)OCO2)N1CCCCC1`, the Potency is reported as inconclusive [activator, single point].
For `CS(=O)(=O)N1CCc2cc(C(=O)Nc3ccc(COCC(F)(F)F)cc3)ccc21`, the Potency was “inactive”.
With `CSCC[C@H](NC(=O)OC(C)(C)C)C(=O)N/N=C/c1ccc2nccnc2c1` the Potency was “inactive”.
With `COC(=O)c1[nH]c2ccc(Cl)cc2c1NC(=O)CN1CCc2cc(OC)c(OC)cc2C1` the Potency was inconclusive [inhibitor, single point].
With `Cc1cccc(C)c1Nc1nnc(SCc2cn3cccc(C)c3n2)s1` the Potency was inconclusive [inhibitor, single point].
In the case of `O=C(O)CCCNC(=O)/C(=C\c1ccccc1F)NC(=O)c1ccccc1`, the Potency is reported as inconclusive [inhibitor, single point].
For `Cc1ccc(-n2[nH]c(C)c(/C=C3/C=Nc4ccccc43)c2=O)cc1C`, the Potency was “inactive”.
In the case of `CCCOc1ccc(C(C)=O)cc1CSCCC#N`, the Potency is reported as “inactive”.
With `CN1CCN(C(=O)C2=C[C@@H](c3csc4ccccc34)C[C@@H](OCc3ccc(CO)cc3)O2)CC1` the Potency was inconclusive [inhibitor, single point].
For `Cc1cc(C)cc(C(=O)NC(CC(N)=O)c2ccc(N3CCC(Br)CC3)c([N+](=O)[O-])c2)c1` (configuration not stated), the Potency was “inactive”.
For `COc1ccc(-n2c(Cc3cccn3C)nnc2SCC(=O)Nc2ccc(C)c(Cl)c2)cc1`, the Potency was active: 11.2 µM.
For `Cc1cccc(C(P(=O)(c2ccccc2)c2ccccc2)P(=O)(c2ccccc2)c2ccccc2)n1`, the Potency was inconclusive [activator, single point].
For `Cc1ccc(C)c(NCC(=O)NNC(=S)Nc2ccccc2)c1`, the Potency was inconclusive [inhibitor, single point].
With `O=C(c1ccc(Cl)c(Cl)c1)N1CCC(=O)N(C(COCc2cccc(C(F)(F)F)c2)Cc2ccccc2)CC1` (configuration not stated) the Potency was inconclusive [inhibitor, single point].
With `CC1(C(=O)N2CC3(CC(c4cccc(NC(=O)CC(c5ccccc5)c5ccccc5)c4)=NO3)C[C@@H]2C(N)=O)CC1` (some centres not stated) the Potency was “inactive”.
With `c1ccc(CSc2nnc(-c3ccncc3)o2)cc1` the Potency was inconclusive [activator, single point].
For `Cc1nc(S(=O)(=O)c2ccc(Cl)cc2)c(N(C)C)o1`, the Potency was “inactive”.
With `O=c1c2ccccc2cnn1CCOc1ccccc1` the Potency was active: 3.98 µM.
With `O=S(=O)(NCc1ccccn1)c1cc(C(F)(F)F)ccc1Cl` the Potency was inconclusive [inhibitor, single point].
In the case of `CCOC(=O)c1ccc(/C=C2/C=C(c3ccccc3)N(c3ccc(Cl)c(C(=O)O)c3)C2=O)cc1`, the Potency is reported as “inactive”.
For `CCc1cc2c(NC3CCCC3)ncnc2s1`, the Potency was inconclusive [inhibitor, single point].
With `CCSc1nc(-c2ccccc2)nc(C(Cl)Cl)n1` the Potency was active: 10 µM.
For `CCN1C(=O)c2ccc(C(=O)Nc3ncc(C)s3)cc2C1=O`, the Potency was inconclusive [activator, full curve, poor fit].
For `CCOc1cccc2cc(-c3csc(NC(=O)CCC(=O)NCCCN4CCC(C)CC4)n3)c(=O)oc12`, the Potency was inconclusive [activator, single point].
For `Cc1ccc(-c2cnc(N)n2C)cc1C`, the Potency was inconclusive [inhibitor, single point].
For `COc1ccc(NC(=O)C=C(C)C)cc1Cl`, the Potency was “inactive”.
For `Cc1cc(-n2c(C)cc(C(=S)N3CCOCC3)c2C)ccc1Br`, the Potency was inconclusive [inhibitor, single point].
For `CN(c1cccc(NC(=O)CN(c2cccc(Cl)c2)S(=O)(=O)c2ccccc2)c1)S(C)(=O)=O`, the Potency was “inactive”.
With `Cc1nc2c(-c3ccccc3)cnn2c(N)c1-c1ccccc1` the Potency was inconclusive [inhibitor, partial curve].
In the case of `Cn1nnnc1SCC(=O)N1c2ccccc2CCc2ccccc21`, the Potency is reported as “inactive”.
In the case of `O=C(Nc1nc2ccccc2[nH]1)c1ccccc1F`, the Potency is reported as active: 1.78 µM.
For `CC1CN(C(=O)N2c3ccccc3Sc3ccccc32)CC(C)O1` (configuration not stated), the Potency was active: 3.55 µM.
With `CC1=NN(C(=O)c2cccc(Cn3nc(C)c([N+](=O)[O-])c3C)c2)C(O)(C(F)(F)F)C1` (configuration not stated) the Potency was active: 7.08 µM.
In the case of `O=C(O/N=C(\c1ccccc1)c1ccccn1)c1cccc2ccccc12`, the Potency is reported as inconclusive [inhibitor, single point].
For `CCNC(=O)CSc1nnc(-c2cc(-c3ccc(Cl)cc3)nc3ccccc23)o1`, the Potency was inconclusive [activator, partial curve].
For `CCOC(=O)Cc1cc(=O)n2[nH]c(-c3ccc(C)cc3)cc2n1`, the Potency was “inactive”.
With `Cn1nnnc1SCc1nc2scc(-c3ccc(Cl)cc3)c2c(=O)[nH]1` the Potency was “inactive”.
For `O=c1cc(-c2ccccc2)nc(SCc2ccc(F)cc2)[nH]1`, the Potency was inconclusive [activator, single point].
In the case of `CC1=CC(C2CC(=O)N(c3ccccc3C)C2=O)CC2C(=O)N(c3ccccc3C)C(=O)C12` (configuration not stated), the Potency is reported as “inactive”.
With `Cc1nc(N2CCN(C(=O)COc3ccccc3)CC2)c2c(C)c(C)sc2n1` the Potency was inconclusive [inhibitor, single point].
For `C=CCn1c(=O)c(C(=O)NCc2ccccc2Cl)c(O)c2ccccc21`, the Potency was inconclusive [inhibitor, single point].
For `Cc1nc(NC(=O)c2cccc(-c3cc4ccccc4oc3=O)c2)ccc1Br`, the Potency was inconclusive [inhibitor, single point].
With `O=C(COc1cccnc1[N+](=O)[O-])Nc1ccc(Cl)c(S(=O)(=O)N2CCOCC2)c1` the Potency was “inactive”.
With `CC(C)C1O/C(=N/C(=O)Nc2ccc(Cl)c(Cl)c2)NC1=O` (configuration not stated) the Potency was inconclusive [inhibitor, single point].
In the case of `CCCCC(CC)C(=O)Nc1ccc(Nc2ccccc2)cc1` (configuration not stated), the Potency is reported as inconclusive [inhibitor, single point].
With `CCOC(=O)c1c(NC(=O)c2ccc(N3C(=O)[C@@H]4[C@H](C3=O)[C@H]3C=C[C@@H]4C3)cc2)sc2c1CCCC2` the Potency was inconclusive [inhibitor, partial curve, poor fit].
For `O=C(COC(=O)c1cc(=O)c2ccccc2o1)NC1CCCCC1`, the Potency was “inactive”.
With `CCOC(=O)N1CCC(n2c(=S)[nH]c3cc(OCC)c(OCC)cc3c2=O)CC1` the Potency was “inactive”.
In the case of `O=C(O)CCCCC1CCSS1` (configuration not stated), the Potency is reported as inconclusive [inhibitor, single point].
For `O=C(Nc1nnc(C2=COCCO2)o1)c1ccc(S(=O)(=O)N2CCCCC2)cc1`, the Potency was active: 3.16 µM.
For `Nc1c(C(=O)N/N=C/c2ccc(Cl)cc2)cnn1-c1ccccc1`, the Potency was “inactive”.
In the case of `CCn1c(C)nc2cc(C(=O)N/N=C(\C)c3ccc(N4CCOCC4)cc3)ccc21`, the Potency is reported as inconclusive [inhibitor, single point].
In the case of `Brc1ccc(-c2ccc(CNCc3ccccn3)o2)cc1`, the Potency is reported as inconclusive [inhibitor, single point].
With `O=C(Cc1ccc(Cl)cc1)NCC(=O)N1CCN(c2ccccc2)CC1` the Potency was “inactive”.
For `O=S(=O)(NC1CCCCC1)c1ccc(Cl)s1`, the Potency was inconclusive [inhibitor, single point].
In the case of `CN(C)c1ccc(/C=N/NC(=O)c2cc(-c3ccc4c(c3)OCO4)n[nH]2)cc1`, the Potency is reported as “inactive”.
For `CCCCCCOc1ccc(/C(N)=N/O)cc1`, the Potency was “inactive”.

— PubChem BioAssay AID2546 (National Center for Advancing Translational Sciences (NCATS), 2010)
Potency means the concentration at half of the fitted maximal effect; tags describe the fitted curve by direction and shape.
